The supplement of paper PMC10369915
This is one part of the list. Cut-off read from the data, not from the text of the source: active = 3.2 or more and inactive = the rest. Most of these values are background signal.

What was measured:
Assay in all cases: enrichment score (SH2-bound / input frequency) (ratio); bacterial display of known human phosphotyrosine sites (pTyr-Var adds point mutants) read by sequencing; higher = stronger binding; tyrosines were phosphorylated by kinases first
Details in all cases: peptide library: pTyr-Var
SHP2 C-SH2 domain E139D = molecular target: SHP2 C-SH2 domain E139D
[1] = molecular target: SHP2 C-SH2 domain wild-type
SHP2 N-SH2 domain L43F = molecular target: SHP2 N-SH2 domain L43F
SHP2 N-SH2 domain T42A = molecular target: SHP2 N-SH2 domain T42A
SHP2 N-SH2 domain T52S = molecular target: SHP2 N-SH2 domain T52S
[2] = molecular target: SHP2 N-SH2 domain wild-type

Measured: enrichment score
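Note: displayed peptides selected on beads carrying the immobilized SH2 domain, with library peptides lacking any tyrosine serving as negative controls.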

B1: CHL1_Y291_T287A (peptide)
chain: EAKENYGKTLK
inactive: SHP2 C-SH2 domain E139D 0.513 | [1] 0.587 | SHP2 N-SH2 domain L43F 0.472 | SHP2 N-SH2 domain T42A 0.45 | SHP2 N-SH2 domain T52S 0.431 | [2] 0.527

B2: CFTR_Y1014_P1013L (peptide)
chain: AVLQLYIFVAT
inactive: SHP2 C-SH2 domain E139D 0.918 | [1] 1.27 | SHP2 N-SH2 domain L43F 0.798 | SHP2 N-SH2 domain T42A 0.947 | SHP2 N-SH2 domain T52S 1.22 | [2] 1.14

B3: CHD7_Y1218_YF (peptide)
chain: IQKKFYRAILE
inactive: SHP2 C-SH2 domain E139D 1.18 | [1] 1.01 | SHP2 N-SH2 domain L43F 0.861 | SHP2 N-SH2 domain T42A 0.789 | SHP2 N-SH2 domain T52S 0.95 | [2] 0.798

B4: CHST6_Y358_YF (peptide)
chain: LQLLGYRPVFS
inactive: SHP2 C-SH2 domain E139D 0.684 | [1] 1.12 | SHP2 N-SH2 domain L43F 0.7 | SHP2 N-SH2 domain T42A 1.05 | SHP2 N-SH2 domain T52S 1.01 | [2] 1

B5: CLCA1_Y661 (peptide)
chain: GVYSRYFTTYD
inactive: SHP2 C-SH2 domain E139D 0.921 | [1] 1.16 | SHP2 N-SH2 domain L43F 1.09 | SHP2 N-SH2 domain T42A 1.08 | SHP2 N-SH2 domain T52S 1.05 | [2] 0.823

B6: CHST6_Y358_Y358D (peptide)
chain: LQLLGDRPVYS
inactive: SHP2 C-SH2 domain E139D 1.22 | [1] 0.91 | SHP2 N-SH2 domain L43F 1.57 | SHP2 N-SH2 domain T42A 1.18 | SHP2 N-SH2 domain T52S 1.41 | [2] 1.54

B7: CHST6_Y358_Y358H_YF (peptide)
chain: LQLLGHRPVFS
inactive: SHP2 C-SH2 domain E139D 1.36 | [1] 1.41 | SHP2 N-SH2 domain L43F 1.19 | SHP2 N-SH2 domain T42A 1.03 | SHP2 N-SH2 domain T52S 1.69 | [2] 1.21

B8: CFTR_Y512_I507V_YF (peptide)
chain: VFGVSYDEFRF
inactive: SHP2 C-SH2 domain E139D 2.06 | [1] 1.91 | SHP2 N-SH2 domain L43F 1.65 | SHP2 N-SH2 domain T42A 2.32 | SHP2 N-SH2 domain T52S 1.82 | [2] 1.48

B9: CLCA1_Y147_R152K (peptide)
chain: KKLAEYGPQGK
inactive: SHP2 C-SH2 domain E139D 0.638 | [1] 0.533 | SHP2 N-SH2 domain L43F 0.602 | SHP2 N-SH2 domain T42A 0.74 | SHP2 N-SH2 domain T52S 0.63 | [2] 0.853

B10: CFTR_Y517_V520F (peptide)
chain: YDEYRYRSFIK
inactive: SHP2 C-SH2 domain E139D 1.01 | [1] 0.84 | SHP2 N-SH2 domain L43F 0.929 | SHP2 N-SH2 domain T42A 0.832 | SHP2 N-SH2 domain T52S 0.842 | [2] 0.845

B11: CFTR_Y512_D513G (peptide)
chain: IFGVSYGEYRY
inactive: SHP2 C-SH2 domain E139D 2.33 | [1] 2.19 | SHP2 N-SH2 domain L43F 2.2 | SHP2 N-SH2 domain T42A 1.85 | SHP2 N-SH2 domain T52S 2.36 | [2] 2.28

B12: CFTR_Y512_F508C_YF (peptide)
chain: ICGVSYDEFRF
inactive: SHP2 C-SH2 domain E139D 1.2 | [1] 1.55 | SHP2 N-SH2 domain L43F 1.27 | SHP2 N-SH2 domain T42A 1.15 | SHP2 N-SH2 domain T52S 1.19 | [2] 1.51

B13: CHD7_Y1217_YF (peptide)
chain: NIQKKYFRAIL
inactive: SHP2 C-SH2 domain E139D 1.07 | [1] 0.874 | SHP2 N-SH2 domain L43F 0.7 | SHP2 N-SH2 domain T42A 0.657 | SHP2 N-SH2 domain T52S 0.95 | [2] 1.21

B14: CHN1_Y143 (peptide)
chain: TINPIYEHVGY
inactive: SHP2 C-SH2 domain E139D 0.806 | [1] 0.683 | SHP2 N-SH2 domain L43F 0.926 | SHP2 N-SH2 domain T42A 0.595 | SHP2 N-SH2 domain T52S 0.777 | [2] 0.89

B15: CFTR_Y512 (peptide)
chain: IFGVSYDEYRY
inactive: SHP2 C-SH2 domain E139D 1.68 | [1] 1.57 | SHP2 N-SH2 domain L43F 1.71 | SHP2 N-SH2 domain T42A 1.75 | SHP2 N-SH2 domain T52S 1.88 | [2] 1.76

B16: CKM_Y125_L127V (peptide)
chain: DLDPNYVVSSR
inactive: SHP2 C-SH2 domain E139D 0.627 | [1] 0.64 | SHP2 N-SH2 domain L43F 0.684 | SHP2 N-SH2 domain T42A 0.579 | SHP2 N-SH2 domain T52S 0.727 | [2] 0.557

B17: CHRND_Y38 (peptide)
chain: FQEKGYNKELR
inactive: SHP2 C-SH2 domain E139D 0.977 | [1] 0.925 | SHP2 N-SH2 domain L43F 0.873 | SHP2 N-SH2 domain T42A 1.12 | SHP2 N-SH2 domain T52S 0.871 | [2] 0.919

B18: CHN1_Y143_YF (peptide)
chain: TINPIYEHVGF
inactive: SHP2 C-SH2 domain E139D 0.933 | [1] 0.694 | SHP2 N-SH2 domain L43F 0.983 | SHP2 N-SH2 domain T42A 0.873 | SHP2 N-SH2 domain T52S 0.87 | [2] 0.837

B19: CLCA1_Y665_Y661H (peptide)
chain: RHFTTYDTNGR
inactive: SHP2 C-SH2 domain E139D 0.823 | [1] 0.689 | SHP2 N-SH2 domain L43F 0.775 | SHP2 N-SH2 domain T42A 0.626 | SHP2 N-SH2 domain T52S 0.619 | [2] 0.809
